# Laboratory results as given in PubChem BioAssay AID624417 (National Center for Advancing Translational Sciences (NCATS), 2012).
# Screen size: about 410,000 compounds; about 6,400 (1.6%) were called active. Inconclusive means that the source gave no clear call. Such entries were picked first, then a sample of the others. Calls come from the whole dose curve; as a rule, active = well fitted inhibition curve with a large enough effect; inconclusive = small, poorly fitted or top-dose-only effect; inactive = no such curve, though single readings can be large or run the other way. Potencies of inconclusive entries are left out as doubtful fits.
# Target: Glucagon-like peptide 1 receptor (Homo sapiens) (UniProt P43220)
# UniProt P43220, sequence (P43220 whole entry, looked up): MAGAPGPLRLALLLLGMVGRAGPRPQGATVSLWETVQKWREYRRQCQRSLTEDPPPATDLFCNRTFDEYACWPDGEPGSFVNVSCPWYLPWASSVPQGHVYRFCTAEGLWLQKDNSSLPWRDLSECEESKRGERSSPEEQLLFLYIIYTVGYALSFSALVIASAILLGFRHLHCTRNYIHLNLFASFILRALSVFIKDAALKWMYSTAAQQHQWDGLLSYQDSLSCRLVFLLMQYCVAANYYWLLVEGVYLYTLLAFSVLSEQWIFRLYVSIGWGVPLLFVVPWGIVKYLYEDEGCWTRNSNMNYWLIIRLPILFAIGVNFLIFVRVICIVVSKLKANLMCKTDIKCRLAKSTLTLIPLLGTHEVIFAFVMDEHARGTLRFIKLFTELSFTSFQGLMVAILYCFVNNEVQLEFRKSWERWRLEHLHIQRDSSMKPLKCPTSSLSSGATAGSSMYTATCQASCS
# Assay: qHTS of GLP-1 Receptor Inverse Agonists (Inhibition Mode); note: nearly all actives have a fitted effect of over 55% in size
# Details: HEK293 GLP-1R CRE-luciferase, luminescence, 24 h, GLP-1R form is constitutively active; activity change, negative = inhibition: at 38.3 µM (top of the series) unless noted
# In short: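 Stable HEK293 clone (constitutively active GLP-1R + cAMP-response luciferase); 200 cells/uL plated, 12 h pre-culture, compound 24 hr, 37 deg C/5% CO2; detection reagent 12 min RT; luminescence.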
# % is set by controls: 0 for no effect and ±100 for the full control effect; potency is the fitted concentration of half-maximal effect; tags give direction and shape of the fitted curve.
SMILES,"activity change, negative = inhibition",Potency
COc1ccc2c(C)c(CCC(=O)NCc3ccc(Cl)cc3)c(=O)oc2c1C,inactive: 4.31%,
O=C(N/N=C/c1cn(-c2cccs2)nc1-c1ccccc1)c1ccccc1Br,,"inconclusive [inhibitor, full curve, poor fit]"
O=C(COC(=O)c1ccc(O)cc1O)N=c1sccn1Cc1ccccc1Cl,,"inconclusive [inhibitor, single point]"
CC(NC(=O)CCSc1nc(-c2ccc3c(c2)OCO3)cc(C(F)(F)F)n1)c1ccccc1 (stereo unspecified),,"inconclusive [inhibitor, partial curve, poor fit]"
COc1cccc(CN2CCCC(C(=O)Nc3ccc(-c4cscn4)cc3)C2)c1 (stereo unspecified),,"inconclusive [inhibitor, single point]"
CC(=O)N1CCN(CC(=O)Nc2c(Cl)ccc(C)c2Cl)CC1,inactive: 23.6%,
Cc1ccccc1-c1nn2c(=O)cc(CN3CCN(S(=O)(=O)c4ccc(Cl)cc4)CC3)nc2s1,inactive: 2.96%,
COc1ccc(CN2CCC(n3nccc3NC(=O)c3ccc4c(c3)OCO4)CC2)cc1C,,"inconclusive [inhibitor, partial curve, poor fit]"
COc1ccc(CCNC(=O)c2cc(S(=O)(=O)N3CCCCCC3)ccc2OC)cc1OC,inactive: -25.3%,
C=CCN(C(=O)C1CSC2(C)CCC(=O)N12)c1nc(-c2ccccc2)cs1 (stereo unspecified),,"inconclusive [inhibitor, partial curve, poor fit]"
CC1CCc2c(C(=O)Nc3ccc(OC(F)(F)F)cc3)csc2C1 (stereo unspecified),,"inconclusive [inhibitor, partial curve]"
CCCCN(CC)Cc1ccc(CNC(=S)Nc2c(C)cc(C)cc2C)o1,,"inconclusive [inhibitor, partial curve, poor fit]"
O=[N+]([O-])c1ccc(NCCCNS(=O)(=O)c2ccc(Cl)cc2)c(Cl)c1,,active: 11.2 µM
NC(=O)c1ccc(NC(=O)COC(=O)c2c3c(nc4ccccc24)/C(=C\c2cccs2)CCC3)cc1,,"inconclusive [inhibitor, single point]"
COc1ccc(CC(C)N2CCN(Cc3ccccc3)CC2)c(OC)c1 (stereo unspecified),inactive: -4.12%,
O=C(NN1C(=O)/C(=C/C=C/c2ccco2)SC1=S)c1ccccc1O,inactive: 13.4%,
O=C(CSc1nnc(-c2ccc(Br)cc2)o1)Nc1cccc(C(=O)O)c1,,"inconclusive [inhibitor, full curve]"
CCOc1ccc(C(=O)NCC(c2ccco2)S(=O)(=O)c2cccs2)cc1 (stereo unspecified),inactive: -10.9%,
Cn1c(CCN2CCCCC2)nc2cc(NC(=O)COc3ccc(Cl)cc3)ccc21,,"inconclusive [inhibitor, single point]"
Cc1cc(-n2c(C)cc(C(=O)CSc3ncnc4ccccc34)c2C)no1,,"inconclusive [inhibitor, partial curve, poor fit]"
Clc1ccc(-c2nc3ccc(Cl)cn3c2Cc2ccsc2)cc1,,"inconclusive [inhibitor, single point]"

SMILES,"activity change, negative = inhibition",Potency
CCN(CCNC(=O)C1CCN(Cc2nc(-c3cccc(Cl)c3)oc2C)CC1)c1ccccc1,,"inconclusive [inhibitor, partial curve, poor fit]"
O=C(CS(=O)(=O)c1cn(Cc2ccc(Cl)cc2)c2ccccc12)N1CCCC1,,"inconclusive [inhibitor, single point]"
CCSS(=O)(=O)c1cccc2cccnc12,,"inconclusive [inhibitor, single point]"
CCOC(=O)c1ccc(N2C(=O)c3n[nH]c(C)c3C2c2ccc(OCC)cc2)cc1 (stereo unspecified),,"inconclusive [inhibitor, single point]"
CC(C)(C)c1ccc(C(=O)N/C(=C\c2cccs2)C(=O)N2CCOCC2)cc1,,"inconclusive [inhibitor, partial curve, poor fit]"
COc1ccc(OC)c(CCNC(=O)CCC(=O)N2CCOc3ccc(C)cc32)c1,,"inconclusive [inhibitor, partial curve, poor fit]"
CC12CC3CC(C)(C1)CC(C(=O)NNC(=O)c1ccncc1)(C3)C2,inactive: 9.62%,
COc1ccccc1NC(=O)Nc1ccccc1Br,,"inconclusive [inhibitor, partial curve, poor fit]"
CN(CC(=O)Nc1ccccc1C(=O)NC1CC1)Cc1ccccc1F,,"inconclusive [inhibitor, partial curve, poor fit]"
O=C(Nc1nnc(S(=O)(=O)Nc2ccccc2)s1)C1CCCCC1,,"inconclusive [inhibitor, single point]"
CN(C)CCCN(C(=O)c1ccc(S(=O)(=O)N(C)C2CCCCC2)cc1)c1nc2ccc(F)cc2s1,,"inconclusive [inhibitor, partial curve, poor fit]"
C(=N\Nc1ncnc2ccccc12)/c1ccccc1,,"inconclusive [inhibitor, full curve, poor fit]"
Cc1ccc(CNC(=O)c2ccc(N(C)S(=O)(=O)c3ccccc3)cc2)cc1,,"inconclusive [inhibitor, partial curve, poor fit]"
Cc1noc2ncnc(Sc3ccc(Cl)cc3)c12,inactive: -21.1%,
COc1ccc(-c2nc(CNC(=O)Nc3ccccc3)c(C)o2)cc1,inactive: 12.9%,
O=S1(=O)CC/C(=N\Nc2ccc(F)cc2)c2ccsc21,,"inconclusive [inhibitor, partial curve, poor fit]"
CCOC(=O)c1ccc(N=c2sc(C(=O)OC)cc(=O)n2Cc2ccco2)cc1,,active: 4.47 µM
CCCN(c1ccc(C(C)C)cc1)S(=O)(=O)c1ccc2c(c1)oc(=O)n2CC(=O)OCC,,"inconclusive [inhibitor, partial curve, poor fit]"
COc1cccc(Cn2c(CNS(=O)(=O)c3ccc(C(C)(C)C)cc3)nc3cccnc32)c1,,"inconclusive [inhibitor, single point]"
CCN1CCN(C(=O)c2cnn3c(C(F)F)cc(-c4ccc(C)cc4)nc23)CC1,,"inconclusive [inhibitor, single point]"
